{"source": "the supplement of paper PMC11417369", "note": "± gives the standard deviation of the averaged measurements. Some of the results follow."}
{"tested_on": "PfAP2-G AP2 domain (GST-tagged)", "experiment": "gcPBM binding intensity (ln(normalized median fluorescence intensity)); higher = stronger DNA binding", "procedure,_shortened": "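An Agilent 4 × 180k array carrying primer-extended double-stranded 36-bp intergenic genomic probes and negative controls received GST-tagged P. falciparum DNA-binding domains expressed in E. coli, about 25 μg on average, for 1 h. The binding buffer contained 1× PBS, 1% milk, 0.2 mg/ml BSA, 0.5% salmon testes DNA and 0.03% Triton X-100. Binding intensity is the top Masliner-normalised natural-log median intensity across replicate spots of either probe orientation, read after Alexa488 anti-GST antibody staining and a 488 nm scan.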"}
{"sequence": "ATATATATAAATAAATGTACATAAATAATATATTAT [XGTACX_site5419]", "gcPBM binding intensity (ln)": "11.1 ± 0.48"}
{"sequence": "TATATATATATATATATATTTATGTATTTATTTAAT [TGCATGCA_negctrl_site179]", "gcPBM binding intensity (ln)": "10.2 ± 0.89"}
{"sequence": "TTTTGGTTTTGTTCTACACACATAAAAAAAAAAAAG [CACACA_site2276]", "gcPBM binding intensity (ln)": "10.4 ± 0.5"}
{"sequence": "TTTCTATTTATTAATACATGCAAAATAAAGTAAAGT [TGCATGCA_site209]", "gcPBM binding intensity (ln)": "10.3 ± 0.4"}
{"sequence": "ATATATCAATATGGAATATATATATATATATATATA [TGCATGCA_negctrl_site502]", "gcPBM binding intensity (ln)": "9.96 ± 0.58"}
{"sequence": "TTATTTTTATATTTTAATTTTAAAAAAATTTTAATT [CACACA_negctrl_site777]", "gcPBM binding intensity (ln)": "9.73 ± 0.23"}
{"sequence": "ATTATACATATTATATGTACATATATAAATAAATAA [XGTACX_site7076]", "gcPBM binding intensity (ln)": "11.1 ± 0.57"}
{"sequence": "CTTTGTAGTATATTAACACACAACTGTTTATAATAT [CACACA_site6038]", "gcPBM binding intensity (ln)": "10.1 ± 0.17"}
{"sequence": "ATATATTATAGGTACACACACATATAAGGGATTATA [CACACA_site6154]", "gcPBM binding intensity (ln)": "11.3 ± 0.92"}
{"sequence": "ATATACATATATATTGCATGCAGAGAGTATTTATAA [TGCATGCA_site646]", "gcPBM binding intensity (ln)": "9.95 ± 0.22"}
{"sequence": "ATATATATATATATTGTGCACAAAAAAAAATAAGCA", "gcPBM binding intensity (ln)": "10.7 ± 0.45"}
{"sequence": "GGAAAGACAGTTCACAGTACCCAGGAAATCTACGGA [XGTACX_site1996]", "gcPBM binding intensity (ln)": "10.8 ± 0.51"}
{"sequence": "TTCTTTAAAAAATTCGATAAAAAAAAAAAAAGAAAA [CACACA_negctrl_site242]", "gcPBM binding intensity (ln)": "9.58 ± 0.21"}
{"sequence": "TATATACTCATGCGCACACACAAGTGGGAAATTTGG [CACACA_site5056]", "gcPBM binding intensity (ln)": "10.5 ± 0.27"}
{"sequence": "TTATTAAATATGTACACACGTACATTTTATAAATGA [CACACA_site2387]", "gcPBM binding intensity (ln)": "11.7 ± 1.1"}
{"sequence": "ATAATAATAAAATATATATACAAAGGTGAAATTATA [TGCATGCA_negctrl_site197]", "gcPBM binding intensity (ln)": "9.995 ± 0.007"}
{"sequence": "TATTTTTTTTTCCATTGTACATTTTTGATATTTTTC [XGTACX_site744]", "gcPBM binding intensity (ln)": "10.8 ± 0.43"}
{"sequence": "TATATATATATTTAGTGTACTTAAAAAAAATAATAA [XGTACX_site5454]", "gcPBM binding intensity (ln)": "11.5 ± 0.96"}
{"sequence": "AACAACATGTAGACGCGTACCAACATCAGATCCTAT [XGTACX_site4071]", "gcPBM binding intensity (ln)": "11.2 ± 0.71"}
{"sequence": "ATTATAATTATATATGCATGTAGCATTTTCTATTTT [TGCATGCA_site66]", "gcPBM binding intensity (ln)": "9.49 ± 0.25"}
{"sequence": "AACAAATTTATCCAAAGTACAAAATATCATTTCTTA [XGTACX_site4543]", "gcPBM binding intensity (ln)": "10.7 ± 0.5"}
{"sequence": "TATAAATACTAAAAAAGTACAAAATTTCATAAAAAA [XGTACX_site2709]", "gcPBM binding intensity (ln)": "11.2 ± 0.69"}
{"sequence": "GGAAAATCTAATCATTTAATATTTATTTATCTAATT [GTGCAC_negctrl_site553]", "gcPBM binding intensity (ln)": "9.37 ± 0.24"}
{"sequence": "ATTTTATATAATACATGTACAAAAGTTTAAATTTAT [XGTACX_site6196]", "gcPBM binding intensity (ln)": "11.1 ± 0.4"}
